According to article PMC4336329 (PLoS ONE, 2015):
Screen size: about 310,000 compounds; about 2,200 (0.71%) showed an effect of 50% or more. Effects have a minus sign here. The list shows a part of the results.

What follows are molecules tested against human ether-à-go-go-related gene (hERG) potassium channel (human, UniProt Q12809) (assay: primary screen, population patch clamp on CHO cells stably expressing hERG).
Chain of human ether-à-go-go-related gene (hERG) potassium channel (Q12809 whole entry, looked up): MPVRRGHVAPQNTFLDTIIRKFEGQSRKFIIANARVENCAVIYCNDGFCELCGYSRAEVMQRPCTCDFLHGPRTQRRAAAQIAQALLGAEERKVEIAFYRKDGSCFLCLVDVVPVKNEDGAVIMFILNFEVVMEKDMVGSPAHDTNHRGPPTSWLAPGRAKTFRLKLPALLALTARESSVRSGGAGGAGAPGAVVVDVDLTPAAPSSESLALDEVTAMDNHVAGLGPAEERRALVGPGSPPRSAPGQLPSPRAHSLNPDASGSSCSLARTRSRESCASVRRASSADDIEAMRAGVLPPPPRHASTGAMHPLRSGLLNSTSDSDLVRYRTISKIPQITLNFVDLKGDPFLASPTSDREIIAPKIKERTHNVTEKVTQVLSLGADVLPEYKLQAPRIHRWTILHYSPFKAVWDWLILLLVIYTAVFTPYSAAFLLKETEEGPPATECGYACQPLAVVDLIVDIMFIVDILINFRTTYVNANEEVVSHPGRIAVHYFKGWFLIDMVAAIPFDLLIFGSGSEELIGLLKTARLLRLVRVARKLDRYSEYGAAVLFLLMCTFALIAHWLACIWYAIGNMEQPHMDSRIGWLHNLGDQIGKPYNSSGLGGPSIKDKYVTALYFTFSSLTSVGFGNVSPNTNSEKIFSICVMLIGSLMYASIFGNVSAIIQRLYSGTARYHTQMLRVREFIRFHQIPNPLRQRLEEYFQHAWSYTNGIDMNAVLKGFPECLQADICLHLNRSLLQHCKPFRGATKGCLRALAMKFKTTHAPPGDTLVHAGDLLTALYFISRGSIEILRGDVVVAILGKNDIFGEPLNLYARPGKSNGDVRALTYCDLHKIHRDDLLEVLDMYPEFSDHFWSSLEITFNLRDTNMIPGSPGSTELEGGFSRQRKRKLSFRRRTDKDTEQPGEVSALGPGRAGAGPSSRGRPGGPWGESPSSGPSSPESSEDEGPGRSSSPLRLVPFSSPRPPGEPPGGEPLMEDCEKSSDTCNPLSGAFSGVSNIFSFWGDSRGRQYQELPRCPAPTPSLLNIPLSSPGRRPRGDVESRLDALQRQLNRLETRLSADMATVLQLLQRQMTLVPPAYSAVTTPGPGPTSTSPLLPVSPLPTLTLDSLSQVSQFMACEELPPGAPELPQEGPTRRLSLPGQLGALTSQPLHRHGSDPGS

| Compound | hERG current change (%, negative = inhibition) at 1uM |
| --- | --- |
| COc1cc(OC)cc(C(=O)Nc2ccccc2C(=O)N2CCCC2)c1 | 1.26% |
| CN(C)/C=C/C(=O)c1ccn(S(=O)(=O)c2ccccc2)c1 | 10.1% |
| CCOC(=O)CSC1=C(C#N)C(c2ccc(F)cc2)C(C(C)=O)=C(C)N1 (centres unmarked) | 9.13% |
| Cc1ccccc1-n1c(C)nnc1SCc1nc2ccccc2s1 | 5.99% |
| CC(=O)c1c[nH]c(C(=O)NCc2cccc(C(F)(F)F)c2)c1 | 18.7% |
| Cc1ccc(NC(=O)c2c(C)noc2-c2snnc2C)cc1 | 8.36% |
| NC(=O)C1(N2CCCCC2)CCN(c2nc(-c3ccccc3)cs2)CC1 | -2.02% |
| Cc1ccc(-c2nn(-c3ccccc3)cc2/C=N/n2c(-c3ccncc3)n[nH]c2=S)cc1 | 7.72% |
| O=C(N/N=C/c1ccco1)c1cc(=O)[nH]c2ccccc12 | 10% |
| CCc1nc2ccc(C(=O)NCc3ccco3)cc2nc1CC | -0.767% |
| O=C(Cn1c(=O)sc2ccccc21)Nc1nc2c(s1)CCCC2 | 6.76% |
| Cc1ccc(C23CC4CC(CC(C(=O)N5CCN(C)CC5)(C4)C2)C3)cc1 | -5.67% |
| O=C(O)c1ccc(COc2ccccc2Cl)cc1 | 14.8% |
| CCC(=O)Nc1ccc(C(=O)NNC(=O)c2ccc([N+](=O)[O-])cc2)cc1 | 10.4% |
| O=C(Nc1ccc(Cl)cn1)c1ccccc1SCc1ccccc1 | 13.3% |
| COc1ccc(C(=O)N(C)Cc2ccccn2)cc1OC1CCN(C(C)C)CC1 | 9.67% |
| CCCN1C(=O)c2cc(C(=O)Nc3ccc(OC)cc3OC)ccc2C1Nc1ccc(OC)cc1OC (centres unmarked) | 9.85% |
| O=C(O)CNC(=O)CCN1C(=O)c2ccccc2C1=O | -15.6% |
| CCCN(CCC)CCNC(=O)CN1C(=O)COc2ccc(S(=O)(=O)N3CCOCC3)cc21 | 15% |
| Cn1c(=O)c2c(nc(SCC(=O)NC3CCCC3)n2C)n(C)c1=O | 10.1% |
| O=C1NC(c2ccccc2Cl)Nc2ccccc21 (centres unmarked) | 4.54% |
| COc1ccccc1C1CC(c2ccc(Br)cc2)=NN1C(=O)c1cccnc1 (centres unmarked) | 2.17% |
| COC(=O)c1ccc(CNC(=O)C2CCC(=O)N(C3CCCCCC3)C2)cc1 (centres unmarked) | 6.11% |

| Compound | hERG current change (%, negative = inhibition) at 1uM |
| --- | --- |
| Cn1cnnc1SCCC(=O)Nc1ccccc1 | 5.3% |
| CC(C)N(Cc1ccccc1)C(=O)C1CCN(c2ncnc3c2nc2n3CCCCC2)CC1 | 13.1% |
| CC(C)(C)n1nnnc1C(c1ccccn1)N1CCN(C(c2ccccc2)c2ccccc2)CC1 (centres unmarked) | 17.7% |
| Nc1nc(SCc2ccccc2Cl)nc2nc3c(cc12)CCCC3 | -4.29% |
| CCOC(=O)c1cnc2c(C)c(Cl)ccc2c1NCCCN1CCOCC1 | 11.4% |
| Cc1ccc2[nH]c(=O)c3cc(C(=O)NCCC(C)C)sc3c2c1 | 14.6% |
| Cn1cnnc1SCC(=O)Nc1ccc(OCc2ccccc2)cc1 | 14.1% |
| Cc1cc(C(=O)Nc2ncn[nH]2)ccc1[N+](=O)[O-] | 25.4% |
| CCOc1ccc(NS(=O)(=O)c2ccc(C(=O)NCC(c3ccc(OC)cc3)N3CCCC3)cc2)cc1 (centres unmarked) | -6.72% |
| COc1ccc2c(=O)cc(C(F)(F)C(F)(F)F)oc2c1 | 14.3% |
| Cc1cc(C)cc(NC(=O)c2ccc(NC(=O)c3ccco3)cc2)c1 | 16.9% |
| CCc1ccc(N(CC(=O)NCC2CCCO2)C(=O)CCC(=O)Nc2nccs2)cc1 (centres unmarked) | 11.8% |
| O=C(CN1C(=O)NC2(CCCC2)C1=O)N1CCN(S(=O)(=O)c2ccc(Cl)cc2)CC1 | 6.41% |
| Cc1c(Cl)c([N+](=O)[O-])nn1CCCC(=O)Nc1cccc(Cl)c1Cl | -7.86% |
| Cc1ccc2nc(SCC(=O)NC3CC3)[nH]c2c1 | 14.6% |
| COc1cccc(Oc2ccc(N)cc2)c1 | 3.51% |
| CCC(=O)OCCNc1cc(Sc2nccn2C)c2nonc2c1[N+](=O)[O-] | 2.01% |
| Cc1ccccc1NC(=O)Cc1nc(COC(=O)COc2ccc(C(C)(C)C)cc2)cs1 | 1.62% |
| CCOC(=O)COc1ccc2c3c(c(=O)oc2c1)CCCC3 | 14.4% |
| Cc1cccc(OCCNc2nc3c(c(=O)n(C)c(=O)n3C)n2C)c1 | 10.4% |
| C=CCNc1nc(Cl)nc(Nc2ccc(OC)cc2OC)n1 | 13.8% |
| CN(C(=O)CN1CCN(c2ccccc2F)CC1)C1CCCc2ccccc21 (centres unmarked) | 11.2% |
| CCOc1ccccc1NC(=O)Cn1nnc(-c2ccc(OCC)c(OCC)c2)n1 | 23% |

| Compound | hERG current change (%, negative = inhibition) at 1uM |
| --- | --- |
| NNC(=O)/C(=C\c1ccc(Br)cc1)NC(=O)c1cccs1 | 5.51% |
| N#Cc1c(N)nc(SCC(=O)NCCc2ccccc2)c(C#N)c1-c1cccs1 | 11% |
| CCCCc1cc(=O)oc2cc(OS(C)(=O)=O)ccc12 | -1.62% |
| COC(=O)c1sccc1NC(=O)CN(C)NS(=O)(=O)c1ccc(F)cc1 | 4.39% |
| CSc1ccc(CN(C)CC(=O)Nc2ccccc2C(=O)NC2CC2)cc1 | 4.85% |
| COc1ccc(NC(=O)CCCC2CCCCC2)cc1S(=O)(=O)N1CCCCC1 | 15.2% |
| Cc1cc(C)c(C(N)=O)c(Nc2cccc3ccccc23)n1 | 11.1% |
| CCOc1ccc(NC(=O)c2c(OC)cccc2OC)cc1 | 4.47% |
| CN1CCC(=NNC(=O)CN(c2ccc([N+](=O)[O-])cc2)S(=O)(=O)c2ccccc2)CC1 | 4.81% |
| Cc1cc(C)n2nc(SCC(=O)c3cccs3)nc2n1 | 10.8% |
| CCCn1nc(Oc2nc(N(C)C)nc(N(C)C)n2)ccc1=O | 11.5% |
| CN(C)S(=O)(=O)c1ccc(Cl)c(NC(=O)COC(=O)CCSc2ccccc2)c1 | 10.2% |
| COc1ccccc1CCc1nnc(CCC(=O)NC(C)Cn2nc(C)cc2C)o1 (centres unmarked) | 5.63% |
| Cc1ccsc1-c1n[nH]c(=S)n1C1CCCCC1 | 9.99% |
| Cc1ccc(NC(=O)CCC(=O)N/N=C/c2ccc([N+](=O)[O-])o2)cc1C | 0.171% |
| O=C(Nc1nc(-c2ccccn2)cs1)C1CCCC1 | 5.96% |
| CCN(CC)C(=O)CSc1ncnc2c(-c3ccc(OC)cc3)nsc12 | 15.7% |
| CC1CCCCN1CCn1c(=S)[nH]c2cc3c(cc2c1=O)OCO3 (centres unmarked) | 2.76% |
| Cc1ccc(NC(=O)C(C)N2C(=O)c3ccccc3C2=O)c(C)c1 (centres unmarked) | 9.42% |
| COc1cccc(OCc2cc(C(=O)N(C)C3CC(C)(C)NC(C)(C)C3)no2)c1 | 3.5% |
| O=C(CC1CC2CCC1C2)N1CCN(S(=O)(=O)c2ccccc2[N+](=O)[O-])CC1 (centres unmarked) | 7.9% |
| O=C(CS(=O)(=O)c1ccccc1)N1CCCCC1 | 5.96% |
| O=C(O)Cn1c(-c2cscn2)nc2ccccc21 | 10.7% |

| Compound | hERG current change (%, negative = inhibition) at 1uM |
| --- | --- |
| COC(=O)C1=C(CSc2nc3ccccc3s2)NC(=O)NC1c1ccc(F)cc1 (centres unmarked) | 2.16% |
| COc1ccc(N(CC(=O)N/N=C(\C)c2ccccc2)S(=O)(=O)c2ccccc2)cc1 | 15.5% |
| O=C(O)c1ccc(-c2ccccc2C(F)(F)F)o1 | 9.74% |
| COc1ccc(/C=C/C(=O)Nc2cc(=O)n(C)c(=O)n2C)cc1 | 0.532% |
| O=C(NC1(C(F)(F)F)C(=O)Nc2c1c(=O)[nH]c(=O)n2Cc1ccccc1)c1ccc(Cl)cc1Cl (centres unmarked) | 15.8% |
| COc1ccc(C)cc1S(=O)(=O)N(CC(=O)Nc1ccc2c(c1)OCCO2)Cc1ccccc1 | 2.75% |
| CC(NC(=O)CSc1nc(=O)cc(N)n1-c1ccccc1)c1ccccc1 (centres unmarked) | 7.33% |
| CCOC(=O)c1c(NC(=O)/C=C/C(=O)O)sc(C)c1-c1ccc(C(C)(C)C)cc1 | 10.3% |
| CCS(=O)(=O)c1nc(S(=O)(=O)c2ccc(Cl)cc2)c(NCCOC)s1 | 15.3% |
| CC(C)(C)C1CCC(=NNC(=O)C(=O)NCc2cccnc2)CC1 (centres unmarked) | 6.09% |
| O=C(NCc1ccc2c(c1)OCO2)c1ccc2c(c1)N(Cc1c(F)cccc1Cl)C(=O)CS2 | 14.6% |
| COc1ccc(NC(=O)c2cnc(SC)nc2)cc1 | 9.84% |
| CCC(=O)Nc1nnc(-c2ccc(OC)cc2)o1 | 3.48% |
| CC(=O)N1CCN=C1SCc1cccc(C)c1 | 7.96% |
| COc1cc(NC(=O)COC(=O)CCCC2=NS(=O)(=O)c3ccccc3N2)cc(OC)c1 | 13% |
| C=CCN1C=C2C(=O)C(C)(OC(=O)CC)C(=O)C=C2C=C1CCCC (centres unmarked) | 11.7% |
| COC(=O)c1cc2c(s1)-c1ccccc1OC2 | 5.96% |
| COc1cc(OC)cc(C(=O)Nc2nnc(-c3cccnc3)o2)c1 | 6.04% |
| Cc1cc(NC(=O)CSc2nc(C(C)C)nc3sc4c(c23)CCC(C)C4)no1 (centres unmarked) | 9.13% |
| CC1CCCN(C(=O)c2ccc3nc[nH]c3c2)C1 (centres unmarked) | 8.91% |
